From a collection of fitness landscapes (doi:10.1016/j.celrep.2020.107928)
In all, about 81,000 sequences were measured (“one-hybrid fitness for binding parS DNA”: median about -0.17, highest 2% from about 0.51 on). This is one part of the list.

B1: Caulobacter ParB omega fusion; a variant is named by its letters at X, in order, B8GW30 (parent)
chain: MESVVVGEPGMSEGRRGLGRGLSALLGEVDAAPAQAPGEQLGGSREAPIEILQRNPDQPRRTFREEDLEDLSNSIREKGVLQPILVRPSPDTAGEYQIVAGERAWRAAQRAGLKTVPIMVRELDDLAVLEIGIIENVQRADLNVLEEALSYKVLMEKFERTQENIAQTIGKSXSHVANXMRLLXLPDEVQSYLVSGELTAXHARAIAAAADPVALAKQIIEGGLSVRETEALARKAPNLSAGKSKGGRPPRVKDTDTQALESDLSSVLGLDVSIDHRGSTGTLTITYATLEQLDDLCNRLTRGI

Variants of: B1
Test: one-hybrid fitness for binding parS DNA (scaled: cognate 1, non-cognate 0); higher = stronger binding
Conditions: with parS DNA site
Method in brief: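 Selection: bacterial one-hybrid in E. coli USO, HIS3 reporter with the site 19 bp from the promoter, 48 hours at 37°C on M9-minus-histidine plus 0.1 mM IPTG and 5 mM 3-AT. Libraries were Caulobacter ParB with four randomised specificity codons, sequenced on Illumina before and after selection. Fitness is the rescaled log change in variant-to-wild-type read ratio, anchored to the cognate and non-cognate sites.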

| Variant | one-hybrid fitness for binding parS DNA |
| --- | --- |
| QAIQ | ≤ 0.2 |
| HIET | ≤ 0.2 |
| VVRH | ≤ 0.2 |
| DMAD | ≤ 0.2 |
| ARLF | ≤ 0.2 |
| RADQ | ≤ 0.2 |
| AHMT | ≤ 0.2 |
| QNPR | ≤ 0.2 |
| EAMC | ≤ 0.2 |
| ALFT | ≤ 0.2 |
| PQLG | ≤ 0.2 |
| WDTV | ≤ 0.2 |
| SAWY | ≤ 0.2 |
| TSWV | ≤ 0.2 |
| YTYV | ≤ 0.2 |
| RQCI | ≤ 0.2 |
| DNHT | ≤ 0.2 |
| RDNS | ≤ 0.2 |
| RTYF | 0.259 |
| PGID | ≤ 0.2 |
| GPPG | ≤ 0.2 |

| Variant | one-hybrid fitness for binding parS DNA |
| --- | --- |
| TMSN | ≤ 0.2 |
| TLGI | ≤ 0.2 |
| HDPK | ≤ 0.2 |
| QSNR | ≤ 0.2 |
| SCNH | ≤ 0.2 |
| SAEP | ≤ 0.2 |
| IAVT | ≤ 0.2 |
| MKPS | ≤ 0.2 |
| TIWS | ≤ 0.2 |
| QINK | ≤ 0.2 |
| YYRC | ≤ 0.2 |
| LYPC | ≤ 0.2 |
| PYPT | ≤ 0.2 |
| LNSI | ≤ 0.2 |
| FLAD | ≤ 0.2 |
| CLFK | ≤ 0.2 |
| NWVW | ≤ 0.2 |
| QELC | ≤ 0.2 |
| SNTW | ≤ 0.2 |
| DRIS | ≤ 0.2 |
| PRRA | ≤ 0.2 |

| Variant | one-hybrid fitness for binding parS DNA |
| --- | --- |
| RRSF | ≤ 0.2 |
| GCLP | ≤ 0.2 |
| HWNV | ≤ 0.2 |
| QGDL | ≤ 0.2 |
| TGVG | ≤ 0.2 |
| AYWY | ≤ 0.2 |
| DYKS | ≤ 0.2 |
| QFHR | ≤ 0.2 |
| VVFG | ≤ 0.2 |
| GYMR | ≤ 0.2 |
| CHQR | ≤ 0.2 |
| YMFT | ≤ 0.2 |
| LTMY | ≤ 0.2 |
| IVRK | ≤ 0.2 |
| EQTL | ≤ 0.2 |
| FDSP | ≤ 0.2 |
| CVYG | ≤ 0.2 |
| IYVG | ≤ 0.2 |
| DCRH | ≤ 0.2 |
| HSIT | ≤ 0.2 |
| EFMG | ≤ 0.2 |

| Variant | one-hybrid fitness for binding parS DNA |
| --- | --- |
| SLRT | ≤ 0.2 |
| LDNY | ≤ 0.2 |
| DMER | ≤ 0.2 |
| QGHT | ≤ 0.2 |
| VHLD | ≤ 0.2 |
| DRLA | ≤ 0.2 |
| DNQL | ≤ 0.2 |
| KVHV | ≤ 0.2 |
| SLDY | ≤ 0.2 |
| YMAN | ≤ 0.2 |
| GSRG | ≤ 0.2 |
| RLKD | ≤ 0.2 |
| VLCI | ≤ 0.2 |
| YSKW | ≤ 0.2 |
| HTLL | ≤ 0.2 |
| TIFE | ≤ 0.2 |
| NPDV | ≤ 0.2 |
| NNFT | ≤ 0.2 |
| GHTK | ≤ 0.2 |
| YTHY | ≤ 0.2 |
| KRGG | ≤ 0.2 |
